Test results: patent US12583836B2 (Anaxis Pharma Pty Ltd, priority 2020, dated 2026)

Tests used:
[1] = biological target: T1, RIP3 (Homo sapiens, UniProt Q9Y572); test: KINOMEscan binding assay, RIP3; settings: equilibrium dissociation constant, class symbols
T1 construct: purchased DiscoverX (KINOMEscan service); host or cells: E. coli BL21-derived (T7 phage) or HEK293
Source text: The Hill Slope was set to −1.

[2] = biological target: T2, RIP1 (Homo sapiens, UniProt Q13546); test: KINOMEscan binding assay, RIP1; settings: equilibrium dissociation constant, class symbols
T2 construct: purchased DiscoverX (KINOMEscan service); host or cells: E. coli BL21-derived (T7 phage) or HEK293
T2 sequence (Q13546 1-671): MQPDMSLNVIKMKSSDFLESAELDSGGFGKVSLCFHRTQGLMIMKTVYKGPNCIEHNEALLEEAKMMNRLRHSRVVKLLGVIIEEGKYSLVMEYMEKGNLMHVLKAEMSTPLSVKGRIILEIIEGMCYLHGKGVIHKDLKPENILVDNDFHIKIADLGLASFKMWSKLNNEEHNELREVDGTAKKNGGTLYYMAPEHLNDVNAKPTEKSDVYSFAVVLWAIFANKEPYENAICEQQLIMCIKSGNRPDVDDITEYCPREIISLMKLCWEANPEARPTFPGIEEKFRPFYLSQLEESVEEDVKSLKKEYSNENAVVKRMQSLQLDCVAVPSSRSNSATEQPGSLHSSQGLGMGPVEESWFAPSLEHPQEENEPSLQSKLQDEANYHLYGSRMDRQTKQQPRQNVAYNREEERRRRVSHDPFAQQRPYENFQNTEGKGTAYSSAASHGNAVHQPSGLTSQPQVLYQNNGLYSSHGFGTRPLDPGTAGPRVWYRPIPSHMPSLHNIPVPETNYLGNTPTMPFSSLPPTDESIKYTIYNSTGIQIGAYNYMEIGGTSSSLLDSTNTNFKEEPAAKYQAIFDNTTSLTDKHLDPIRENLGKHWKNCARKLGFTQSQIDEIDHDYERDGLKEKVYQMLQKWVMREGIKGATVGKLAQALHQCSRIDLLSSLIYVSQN

T1 sequence (Q9Y572 whole entry): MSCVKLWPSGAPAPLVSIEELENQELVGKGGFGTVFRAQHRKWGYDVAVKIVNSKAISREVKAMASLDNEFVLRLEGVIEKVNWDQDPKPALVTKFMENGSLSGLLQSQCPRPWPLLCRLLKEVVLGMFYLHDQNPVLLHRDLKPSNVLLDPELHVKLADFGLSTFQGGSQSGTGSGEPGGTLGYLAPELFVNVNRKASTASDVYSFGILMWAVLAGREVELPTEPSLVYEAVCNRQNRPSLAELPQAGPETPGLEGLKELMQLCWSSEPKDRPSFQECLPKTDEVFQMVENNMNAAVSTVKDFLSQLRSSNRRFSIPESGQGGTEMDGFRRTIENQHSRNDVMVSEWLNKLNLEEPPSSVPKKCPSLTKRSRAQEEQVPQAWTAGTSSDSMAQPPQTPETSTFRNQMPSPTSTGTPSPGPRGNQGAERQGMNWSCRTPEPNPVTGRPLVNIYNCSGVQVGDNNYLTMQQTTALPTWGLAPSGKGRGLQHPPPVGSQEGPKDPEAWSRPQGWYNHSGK

| Kd [1] [µM] | Kd [2] [µM] | Compound |
| --- | --- | --- |
| > 30 | > 30 | CCS(=O)(=O)Nc1ccc(-c2n[nH]c(Nc3ccnc(C)n3)c2C(N)=O)cc1 [Compound 125, 3-(4-(ethylsulfonamido)phenyl)-5-((2-methylpyrimidin-4-yl)amino)-1H-pyrazole-4-carboxamide] |
| > 30 | > 30 | CCS(=O)(=O)Nc1ccc(-c2n[nH]c(Nc3cnccn3)c2C(N)=O)cc1OCC1CCCCC1 [Compound 47, 3-(3-(cyclohexylmethoxy)-4-(ethylsulfonamido)pheny)-5-(pyrazin-2-ylamino)-1H-pyrazole-4-carboxamide] |
| > 30 | > 30 | CCS(=O)(=O)Nc1ccc(-c2n[nH]c(Nc3ccc4cc(Cl)ccc4n3)c2C(N)=O)cc1OCc1ccc(F)cc1 [Compound 220, 5-((6-chloroquinolin-2-yl)amino)-3-(4-(ethylsulfonamido)-3-((4-fluorobenzyl)oxy)phenyl)-1H-pyrazole-4-carboxamide] |
| > 30 | > 30 | CCS(=O)(=O)Nc1ccc(-c2n[nH]c(Nc3cccc(C(F)(F)F)n3)c2C(N)=O)cc1OCc1cccc(Cl)c1 [Compound 3, 3-(3-((3-chlorobenzyl)oxy)-4-(ethylsulfonamido)phenyl)-5-((6-(trifluoromethyl)pyridin-2-yl)amino)-1H-pyrazole-4-carboxamide] |
| > 30 | > 30 | NC(=O)c1c(-c2ccc(NS(=O)(=O)Cc3cccc(C(F)(F)F)c3)cc2)n[nH]c1Nc1cnccn1 [Compound 83, 5-[(pyrazin-2-yl)amino]-3-(4-{[3-(trifluoromethyl)phenyl]methanesulfonamido}phenyl)-1H-pyrazole-4-carboxamide] |
| > 30 | > 30 | CCS(=O)(=O)Nc1ccc(-c2n[nH]c(Nc3cnn(C)c3)c2C(N)=O)cc1 [Compound 100, 3-(4-(ethylsulfonamido)phenyl)-5-((1-methyl-1H-pyrazol-4-yl)amino)-1H-pyrazole-4-carboxamide] |
| > 30 | > 30 | NC(=O)c1c(-c2ccc(NS(=O)(=O)CCC(F)(F)F)c(OCc3ccc(F)cc3)c2)n[nH]c1Nc1cnccn1 [Compound 184, 3-(3-((4-fluorobenzyl)oxy)-4-((3,3,3-trifluoropropyl)sulfonamido)phenyl)-5-(pyrazin-2-ylamino)-1H-pyrazole-4-carboxamide] |
| > 30 | > 30 | CCS(=O)(=O)Nc1ccc(-c2n[nH]c(Nc3cnccn3)c2C(N)=O)cc1OCC1CCN(C(C)=O)CC1 [Compound 7, 3-(3-((1-acetylpiperidin-4-yl)methoxy)-4-(ethylsulfonamido)phenyl)-5-(pyrazin-2-ylamino)-1H-pyrazole-4-carboxamide] |
| > 30 | > 30 | CCS(=O)(=O)Nc1ccc(-c2n[nH]c(Nc3cccc(C(F)(F)F)n3)c2C(N)=O)cc1Oc1ccc(F)cc1 [Compound 149, 3-(4-(ethylsulfonamido)-3-(4-fluorophenoxy)phenyl)-5-((6-(trifluoromethyl)pyridine-2-yl)amino)-1H-pyrazole-4-carboxamide] |
| > 30 | > 30 | CCS(=O)(=O)Nc1ccc(-c2n[nH]c(Nc3cccc(C(F)(F)F)n3)c2C(N)=O)cc1OCc1ccncc1 [Compound 16, 3-(4-(ethylsulfonamido)-3-(pyridin-4-ylmethoxy)phenyl)-5-((6-(trifluoromethyl)pyridin-2-yl)amino)-1H-pyrazole-4-carboxamide] |
